Hit rate of the full screen: of about 100,000 compounds, about 250 (0.25%) were called active. The inconclusive results got no clear call from the source; some entries with a clear call stand among them for comparison. Calls come from the whole dose curve; as a rule, active = well fitted inhibition curve with a large enough effect; inconclusive = small, poorly fitted or top-dose-only effect; inactive = flat fitted curve, though single readings scatter. Potencies of inconclusive entries are left out as doubtful fits.
These compounds were tested against Alanine aminotransferase 2 (Homo sapiens) (UniProt Q8TD30) (assay: Primary qHTS assay for inhibitors of Glutamate pyruvate transaminase 2 (GPT2)). Conditions: Recombinant GPT2, coupled pyruvate oxidase/HRP Amplex Red fluorescence; activity change, negative = inhibition: at 57.7 µM (top of the series) unless noted; series mostly up to 57.7 µM.
UniProt Q8TD30, sequence (Q8TD30 whole entry, looked up): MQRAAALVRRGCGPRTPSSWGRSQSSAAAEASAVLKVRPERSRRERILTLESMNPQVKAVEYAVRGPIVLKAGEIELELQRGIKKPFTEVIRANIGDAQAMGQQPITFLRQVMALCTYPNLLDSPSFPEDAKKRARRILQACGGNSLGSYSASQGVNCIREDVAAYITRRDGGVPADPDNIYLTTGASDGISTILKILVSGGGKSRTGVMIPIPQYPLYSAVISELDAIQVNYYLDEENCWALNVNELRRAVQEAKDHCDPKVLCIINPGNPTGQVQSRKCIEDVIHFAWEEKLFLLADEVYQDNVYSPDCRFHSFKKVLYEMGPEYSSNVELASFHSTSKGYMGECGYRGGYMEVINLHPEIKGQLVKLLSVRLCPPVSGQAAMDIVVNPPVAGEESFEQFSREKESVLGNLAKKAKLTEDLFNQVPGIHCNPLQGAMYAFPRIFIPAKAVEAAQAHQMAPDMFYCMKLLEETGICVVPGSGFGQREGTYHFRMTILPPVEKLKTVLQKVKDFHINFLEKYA
In short: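 Fluorescence read-out: pyruvate from GPT2 turnover coupled to pyruvate oxidase, HRP and Amplex Red (0.2mM ThPP, 0.2U/mL PO and HRP, 50uM Amplex final). Substrates 250uM a-KG, 2mM L-alanine; enzyme 10ng/uL; 30 min RT.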
In the case of `CCCCCNC(=O)CCN(CC)C(=O)c1cc(C)oc1C`, the Potency is reported as inconclusive [inhibitor, single point].
With `CCOc1ccccc1CN1CCN(c2cccc(C#N)n2)CC1CCO` (stereo unspecified) the “outcome” value was “inactive”.
For `COc1ccc(NC2CCCN(C(=O)c3ccccc3C(F)(F)F)C2)cc1OC` (stereo unspecified), the Potency was inconclusive [inhibitor, full curve, poor fit].
In the case of `Cc1cccc(C(=O)N2CCC(c3nc(-c4cccn4C)no3)C2)c1` (stereo unspecified), the Potency is reported as inconclusive [inhibitor, single point].
`Oc1cccc(-c2cc(C3=CCOCC3)c3cncn3c2)c1` was tested, and the Potency was inconclusive [inhibitor, single point].
`Cc1noc(C)c1-c1cc2cc(C(C)C)oc2c(-c2ccnn2C)n1` was tested, and the Potency was inconclusive [inhibitor, full curve].
In the case of `Cc1cc(C)n(-c2cccc(CN3CCN(C4CCNC4)CC3)c2)n1` (stereo unspecified), the Potency is reported as inconclusive [inhibitor, single point].
With `C(#Cc1nc2ncccc2nc1OCCN1CCCC1)c1ccccc1` the “outcome” value was “inactive”.
For `COCCNC(=O)CN1C(=O)NC(c2cccs2)C2=C1COC2=O` (stereo unspecified), the Potency was inconclusive [inhibitor, full curve].
`COc1ccc(-c2cc(N3CCCN(C(=O)C4CCCC4)CC3)n[nH]2)cc1` was tested, and the Potency was inconclusive [inhibitor, single point].
`Cc1cc(C(=O)NC2CCN(c3ccnc4ccnn34)CC2)ccc1Cl` was tested, and the “outcome” value was “inactive”.
For `O=c1ncn(CC2CC2)c2ccc(-c3ccc(F)cc3F)nc12`, the “activity change, negative = inhibition” value was inactive: -9.16% [at 88.5 µM].
`CC(=O)N1CCCN(C(=O)c2cnc3c(c2)N(C(=O)Cc2ccc(C(C)C)cc2)CCC3)CC1` was tested, and the Potency was inconclusive [inhibitor, partial curve, poor fit].
In the case of `COc1cc(Cl)ccc1C(=O)NC1CCN(c2cc(-c3cccs3)[nH]n2)C1` (stereo unspecified), the Potency is reported as inconclusive [inhibitor, single point].
`COCCN1CC2(CCC1=O)CCN(C(=O)c1c(C)cccc1C)CC2` was tested, and the Potency was inconclusive [inhibitor, single point].
For `COCCn1ncc(N2CCCC(CC(=O)Nc3ccccc3OC)C2)cc1=O` (stereo unspecified), the Potency was inconclusive [inhibitor, single point].
In the case of `CC[C@@H]([C@H](C)O)n1ncn(-c2ccc(N3CCN(c4ccc(OC[C@@H]5CO[C@@](Cn6cncn6)(c6ccc(F)cc6F)C5)cc4)CC3)cc2)c1=O`, the Potency is reported as inconclusive [inhibitor, partial curve].
For `O=C(NCc1ccc(Cl)nc1)c1cccn2cncc12`, the Potency was inconclusive [inhibitor, partial curve, poor fit].
`CC(C)(C)C(=O)N1CCc2nc(-c3ccc(Cl)cc3)nc(-c3ccccc3)c2C1` was tested, and the Potency was inconclusive [inhibitor, single point].
With `O=c1[nH]c(C2CCCN(Cc3cccs3)C2)nc2ccc(F)cc12` (stereo unspecified) the “outcome” value was “inactive”.
With `NC(=O)Cc1c[nH]c2ncc(-c3cccc(N4CCOCC4)c3)cc12` the Potency was inconclusive [inhibitor, single point].
With `COc1ccc(Cl)cc1-c1ccc2c(c1)C(=O)N1CCN(C(=O)C3CCCC3)C[C@H]1C(=O)N2` the “activity change, negative = inhibition” value was inactive: 1.1%.
`CCc1cc(C(N)=O)ccc1-n1nc(C(C)C)c2c(-n3cnc(-c4cnn(C)c4)c3)ccnc21` was tested, and the Potency was inconclusive [inhibitor, single point].
In the case of `CCCCN1C(=O)[C@@H]2C[C@@H](O)CN2C2(CN(Cc3ccncc3)C2)C1=O`, the “activity change, negative = inhibition” value is reported as inactive: 2.5% [at 88.5 µM].
In the case of `O=C(c1nccc2ccccc12)N1CCC2(CC1)CC(CO)N(C(=O)c1ccccc1)C2` (stereo unspecified), the Potency is reported as inconclusive [inhibitor, single point].
`Cc1nccn1CC(=O)NCC1CCN(c2cc(-c3ccc(F)cc3)[nH]n2)CC1` was tested, and the Potency was inconclusive [inhibitor, single point].
In the case of `COc1ccccc1-c1ccc(CN2CCCCC2C(=O)NCc2ccc(C(F)(F)F)cc2)cc1` (stereo unspecified), the “activity change, negative = inhibition” value is reported as inactive: -8.49%.
With `N#Cc1ccc(CN2CC[C@H]3C(=O)NCCCCCCN(Cc4ccncc4)[C@@H]3C2)cc1` the Potency was inconclusive [inhibitor, single point].
`COCCNc1cc(-c2noc([C@@H]3CCCN3CC(C)C)n2)ccn1` was tested, and the Potency was inconclusive [inhibitor, single point].
`CN1CCC(O)(Cc2nc3c([nH]2)CC(C)(C)CNC3=O)CC1` was tested, and the Potency was inconclusive [inhibitor, single point].
`Cc1cc(F)ccc1OC1CN(C(=O)c2ccccn2)C1` was tested, and the Potency was inconclusive [inhibitor, partial curve, poor fit].
In the case of `COc1ccccc1-c1ccc2c(C(=O)NCCc3ccc(F)cc3)nn(C)c2n1`, the “activity change, negative = inhibition” value is reported as inactive: 1.58%.
`C=C(C)C(=O)O[C@H]1C[C@@](C)(O)C(=O)CC(O)/C(C)=C\[C@H]2OC(=O)C(=C)[C@H]12` (stereo partly specified) was tested, and the Potency was inconclusive [inhibitor, single point].
`COc1ccc(-c2noc(-c3nc(Cc4ccccc4)no3)n2)cc1OC` was tested, and the Potency was inconclusive [inhibitor, partial curve, poor fit].
With `CCCNC(=O)NC[C@H]1O[C@@H]2C[C@@H](CC(=O)NC(C)C)O[C@@H]2[C@@H]1O` the Potency was inconclusive [inhibitor, single point].
With `O=[S+]1([O-])c2cnccc2OC(Cn2cccc2)CN1Cc1cccc(F)c1` (stereo unspecified) the “outcome” value was “inactive [at 27.3 µM]”.
For `COc1ccc(-c2ccc3ncc(Nc4cc(F)cc(N5CCOCC5)c4)n3n2)cc1OC`, the Potency was inconclusive [inhibitor, single point].
For `O=C(NCc1ccc(F)cc1)c1ccnc(-c2nnc3ccc(Nc4ccccc4)nn23)c1`, the “activity change, negative = inhibition” value was inactive: -8.42%.
For `O=C(NC1CCCc2c1cnn2-c1ccc(F)cc1F)c1c(F)cccc1Cl` (stereo unspecified), the “activity change, negative = inhibition” value was inactive: -36.3%.
With `Cc1ocnc1C(=O)N1CCC2(CCCN(CCCc3ccccc3)C2=O)C1` (stereo unspecified) the Potency was inconclusive [inhibitor, single point].
In the case of `COc1ccc(C(=O)N2CCC3(CC2)CC(c2nc(C)no2)N(C)C3)cc1` (stereo unspecified), the Potency is reported as inconclusive [inhibitor, single point].

Reference: PubChem BioAssay AID1671188 (National Center for Advancing Translational Sciences (NCATS), 2021)
% is set by controls: 0 for no effect and ±100 for the full control effect; potency is the fitted concentration of half-maximal effect; tags give direction and shape of the fitted curve.
Note: nearly all actives have a fitted effect of over 60% in size.
